Experimental findings from PubChem BioAssay AID1745853 (National Center for Advancing Translational Sciences (NCATS), 2022) are described below.

Experiment in all cases: Primary Screen for Target Class Profiling of Small Molecule Inhibitors of Methyltransferases
In assay [1] the target is Glycine N-methyltransferase (Homo sapiens) (UniProt Q14749). To be noted: purified enzyme, MTase-Glo SAH luminescence; measured here: GNMT inhibition; at 40 µM; stronger effect = lower value. In short, it runs like this: (§1)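 Each enzyme was assayed with SAM and its substrate. SAH formation detected by MTase-Glo luminescence; single-point 40 uM screen[…].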
Assay [2] addresses Guanidinoacetate N-methyltransferase (Homo sapiens) (UniProt Q14353). To be noted: purified enzyme, MTase-Glo SAH luminescence; measured here: GAMT inhibition; at 40 µM; stronger effect = lower value. The method, boiled down:
as §1

Assay [3] concerns the target Histamine N-methyltransferase (Homo sapiens) (UniProt P50135). The conditions noted are these: purified enzyme, MTase-Glo SAH luminescence; measured here: HNMT inhibition; at 40 µM; stronger effect = lower value. The method, boiled down:
as §1

Assay [4] deals with Nicotinamide N-methyltransferase (Homo sapiens) (UniProt P40261). To be noted: purified enzyme, MTase-Glo SAH luminescence; measured here: NNMT inhibition; at 40 µM; stronger effect = lower value. In short, it runs like this:
as §1

Assay [5] has as its target Phenylethanolamine N-methyltransferase (Homo sapiens) (UniProt P11086). To be noted: purified enzyme, MTase-Glo SAH luminescence; measured here: PNMT inhibition; at 40 µM; stronger effect = lower value. In short, it runs like this: as §1

The other results are listed elsewhere or left out. Shown are side measurements of this screen, not its main read-out; they come without a call.
On the % scale 0 is the no-effect control and ±100 the full control effect.

As to `CCN(CC)CCCNC(=O)c1cc2n(n1)CC(C)(C(=O)NC1CCCCC1)N(C)C2=O` (configuration not stated), the activity change, negative = inhibition turned out to be 5.71% in assay [1]; 0% in assay [2]; 3.57% in assay [3]; 11.1% in assay [4]; 3.85% in assay [5].

Turning to `O=C(O)CCn1ncc2cc(OCC3CCN(c4ncc(F)cn4)CC3)ccc21`, the activity change, negative = inhibition was -13% in assay [1]; -8.98% in assay [2]; -5.25% in assay [3]; -19.1% in assay [4]; 7.54% in assay [5].

With `c1ccc(Nc2cc3c(cn2)NCCN(Cc2cccs2)C3)cc1`, the activity change, negative = inhibition in assay [1] was -16.8%; in assay [2], -3.21%; in assay [3], -14.7%; in assay [4], -14%; in assay [5], -19.5%.

Turning to `O=S(=O)(c1ccccc1)N(CC(F)(F)F)c1ccc(C(O)(C(F)(F)F)C(F)(F)F)cc1`, the activity change, negative = inhibition in assay [1] was -1.17%; in assay [2], 4.24%; in assay [3], 12.3%; in assay [4] it was -3.77%; in assay [5] it was 6.35%.

As to `COc1ccc(C(=O)Cn2nc3n(C(C)C)c(=O)c4ccc(C(=O)NC5CCCCC5)cc4n3c2=O)cc1`, the activity change, negative = inhibition in assay [1] turned out to be 4.86%; in assay [2], 0%; in assay [3] it was 8.09%; in assay [4] it was 6.24%; in assay [5], 3.74%.

For `CC#CC(=O)Nc1ccc2ncnc(Nc3cccc(Br)c3)c2c1`, the activity change, negative = inhibition in assay [1] was -0.01%; in assay [2], -23.7%; in assay [3], -2.09%; in assay [4], -34.8%; in assay [5], -17.4%.

Take `COc1ccc(OC)c(S(=O)(=O)N2CCC3(CC2)CC(CC(=O)N2CCOCC2)CCO3)c1` (configuration not stated): the activity change, negative = inhibition is -1.13% in assay [1]; 0% in assay [2]; 1.03% in assay [3]; -1.08% in assay [4]; -0.698% in assay [5].

Regarding `Cc1ccc(CN2CCn3c(nn(-c4ccncc4)c3=O)C2)cc1`, the activity change, negative = inhibition was -6.23% in assay [1]; -10.5% in assay [2]; -6.76% in assay [3]; -6.69% in assay [4]; -3.25% in assay [5].

On to `CCC(C(C)O)n1ncn(-c2ccc(N3CCN(c4ccc(OCC5COC(Cn6cncn6)(c6ccc(F)cc6F)C5)cc4)CC3)cc2)c1=O` (configuration not stated), for which the activity change, negative = inhibition in assay [1] is -0.489%; in assay [3], 3.63%.

`CC1CCC(NC(=O)C2(C)Cn3c(cc4occc43)C(=O)N2CCN(C)C2CCCCC2)CC1` (configuration not stated): the activity change, negative = inhibition in assay [1] was 2.34%; in assay [2], 0.51%; in assay [3], 1.24%; in assay [4], 9.88%; in assay [5], -0.822%.

With `O=C(Nc1ccccc1)N1CCC(N2CCCNC2=O)CC1`, the activity change, negative = inhibition in assay [1] was -4.79%; in assay [2], -5.86%; in assay [3] it was -3.17%; in assay [4], -12.4%; in assay [5], -7.24%.

`CC(C)Cn1c(=O)c2ccccc2n2c(SCC(=O)Nc3ccc(Cl)cc3)nnc12`: the activity change, negative = inhibition is -4.47% in assay [1]; -0.083% in assay [2]; 1.07% in assay [3]; -6.76% in assay [4]; -1.54% in assay [5].

In the case of `COc1cc2nc(-c3ccc(N4CCN(C)CC4)cc3)nc(NCCN3CCOCC3)c2cc1OC`, the activity change, negative = inhibition was -6.31% in assay [1]; -15.2% in assay [2]; -12.3% in assay [3]; -21.8% in assay [4]; -3.94% in assay [5].

In the case of `Cn1c(=O)n(C)c2cc(S(=O)(=O)N3CCN(c4ccc(Cl)cc4)CC3)ccc21`, the activity change, negative = inhibition is 3.26% in assay [1]; 0% in assay [2]; -1.17% in assay [3]; -3.23% in assay [4]; -0.51% in assay [5].

As for `Cc1ccc(N2C(=O)CSc3c(c4ccccc4n3C)C2C(=O)NCc2ccccc2)cc1Cl` (configuration not stated), the activity change, negative = inhibition in assay [1] came to 11.5%; in assay [2], 1.73%; in assay [3], 4%; in assay [4], 0.831%; in assay [5], 6.41%.

For `NC(CCCP(=O)(O)O)C(=O)O` (configuration not stated), the activity change, negative = inhibition is 5.86% in assay [1]; 15.6% in assay [2]; 10.5% in assay [3]; -1.09% in assay [4]; 3.04% in assay [5].

Take `CCCCN1C(=O)c2cc(C(=O)Nc3ccccc3C)nn2CC1(C)C(=O)NC1CCCC1` (configuration not stated): the activity change, negative = inhibition in assay [1] was -1.18%; in assay [2] it was 0%; in assay [3], -9.67%; in assay [4], 1.14%; in assay [5], 0.323%.
